Measurements published in patent publication US8586505B2 (SDS Biotech K. K., priority 2009, dated 2013).

What was measured:
Assay in all cases: whole plant or invertebrate
Aphis gossypii = conditions: in Cucumis sativus, 48 h, read-out: Determination (mortality rate)
Description: (§1) A cucumber leaf section having a diameter of 3 cm was placed on a wet sponge in a plastic cup. Thereafter, five female adults of Aphis gossypii were released into the plastic cup, and they were then left at rest overnight. Thereafter, the number of new-born larvae was counted. 0.4 ml each of an agent solution prepared by diluting a 10% wettable powder of each compound shown in Table 1 to a concentration of 250 ppm was sprayed thereto. Two days later, the number of deaths was counted, and the mortality rate was then calculated.

Spodptera litura = conditions: Brassica rapa, 48 h, read-out: Determination (mortality rate)
Description: A Chinese cabbage leaf section having a diameter of 3 cm was immersed in an agent solution prepared by diluting a 10% wettable powder of each compound shown in Table 1 to a concentration of 500 ppm, and it was then subjected to air drying. Thereafter, the Chinese cabbage leaf was placed in a plastic petri dish, and 10 third-instar larvae of Spodptera litura were released therein. Two days after the treatment, the number of deaths was counted, and the mortality rate was then calculated.

[1] = tested on: Tetranychus urticae female adults; conditions: 48 h, read-out: Determination (mortality rate)
Description: as §1, with “kidney bean” for “cucumber”, “ten” for “five”, “Tetranychus urticae” for “Aphis gossypii”, “cup.” for “cup, and they were then left at rest overnight. Thereafter, the number of new-born larvae was counted.”

Compound	mortality at 250 ppm (Aphis gossypii) [%]	mortality at 500 ppm (Spodptera litura) [%]	mortality at 250 ppm [1] [%]
COC(C)c1ccccc1C#CCCNc1ncnc2ccccc12 (stereo not drawn) [compound 137]	> 95	60 to 80	
CC(F)c1ncnc(NCCC#Cc2ccc(Cl)cc2C(F)(F)F)c1Cl (stereo not drawn) [compound 377]	> 95	80 to 95	
CC(CC#Cc1ccccc1S(C)(=O)=O)Nc1ncnc2ccccc12 (stereo not drawn) [compound 290]	> 95	60 to 80	> 95
C=CC(CC#Cc1ccccc1)Nc1ncnc2ccccc12 (stereo not drawn) [compound 296]	> 95	60 to 80	> 95
CC(CC#Cc1ccc(F)cc1)Nc1ncnc2ccccc12 (stereo not drawn) [compound 271]	> 95	60 to 80	> 95
CC(CC#Cc1ccc(S(F)(F)(F)(F)F)cc1)Nc1ncnc2ccccc12 (stereo not drawn) [compound 277]	> 95	> 95	> 95
COc1cccc2c(NC(C)CC#Cc3ccc(Cl)cc3C(F)(F)F)ncnc12 (stereo not drawn) [compound 352]	> 95	> 95	> 95
CC(CC#Cc1ccc(Cl)cc1)Nc1ncnc2ccccc12 (stereo not drawn) [compound 273]	> 95	60 to 80	> 95
CC(CC#Cc1ccc(Cl)cc1C(F)(F)F)Nc1ncnc2sccc12 (stereo not drawn) [compound 258]	> 95	> 95	80 to 95
CC(CC#Cc1ccc(C(F)(F)F)cc1)Nc1ncnc2ccccc12 (stereo not drawn) [compound 275]	> 95	> 95	
COCc1ccccc1C#CCCNc1ncnc2ccccc12 [compound 133]	> 95	> 95	> 95
CC(CC#Cc1ccc(C(C)C)cc1C(F)(F)F)Nc1ncnc2ccccc12 (stereo not drawn) [compound 289]	> 95	> 95	> 95
C(#Cc1ccoc1)CCNc1ncnc2sccc12 [compound 52]		60 to 80	
FCc1ccccc1C#CCCNc1ncnc2ccccc12 [compound 99]	> 95	> 95	
CC(F)c1ncnc(NCCC#Cc2ccccc2)c1Br (stereo not drawn) [compound 375]	60 to 80	80 to 95	
Fc1cc2ncnc(NCCC#Cc3ccc(Cl)cc3C(F)(F)F)c2cc1F [compound 355]	> 95	> 95	> 95
CC(CC#Cc1ccc(C(F)(F)F)cc1)Nc1ncnc2sccc12 (stereo not drawn) [compound 235]	> 95	60 to 80	
COCc1ccccc1C#CCCNc1ncnc2cc(F)c(F)cc12 [compound 319]	> 95	60 to 80	
COCc1ccccc1C#CCCNc1ncnc2ccc(-c3ccc(F)cc3)cc12 [compound 336]	80 to 95	60 to 80	
COCc1ccc(Cl)cc1C#CCCNc1ncnc2ccccc12 [compound 143]	> 95	> 95	
COCc1ccccc1C#CCCNc1ncnc2ncccc12 [compound 380]	> 95	60 to 80	

Compound	mortality at 250 ppm (Aphis gossypii) [%]	mortality at 500 ppm (Spodptera litura) [%]	mortality at 250 ppm [1] [%]
CC(CC#Cc1ccc(C(F)(F)F)cc1Cl)Nc1ncnc2sccc12 (stereo not drawn) [compound 257]	> 95	> 95	
CC(CC#Cc1ccc(Cl)cc1C(F)(F)F)Nc1ncnc2c(F)cccc12 (stereo not drawn) [compound 348]	> 95	> 95	80 to 95
CC(CC#Cc1ccc(Cl)cc1C(F)(F)F)Nc1ncnc2ccc(F)cc12 (stereo not drawn) [compound 345]	> 95	> 95	> 95
CC(CC#Cc1ccc(Cl)cc1C(F)(F)F)Nc1ncnc(C(C)F)c1Cl (stereo not drawn) [compound 382]	> 95	> 95	> 95
COCc1cc(F)ccc1C#CCCNc1ncnc2ccccc12 [compound 139]	> 95	> 95	> 95
Cc1ccc(C#CCCNc2ncnc3sccc23)cc1 [compound 19]	> 95	60 to 80	
Fc1ccccc1Oc1nc(C#CCCNc2ncnc3ccccc23)cs1 [compound 224]	60 to 80	60 to 80	
CC(CC#Cc1ccc(C(F)(F)F)cc1F)Nc1ncnc2ccccc12 (stereo not drawn) [compound 288]	> 95	> 95	> 95
CC(CC#Cc1ccccc1C(F)(F)F)Nc1ncnc2c(F)cccc12 (stereo not drawn) [compound 343]	> 95	> 95	
Clc1ccccc1C#CCCNc1ncnc2sccc12 [compound 14]	> 95	60 to 80	
Fc1ccc(C#CCCNc2ncnc3sccc23)cc1 [compound 13]	80 to 95	60 to 80	
CC(CC#Cc1ccc(Cl)cc1C(F)(F)F)Nc1ncnc2cc(F)ccc12 (stereo not drawn) [compound 344]	> 95	> 95	> 95
C(#Cc1ccccn1)CCNc1ncnc2sccc12 [compound 55]		60 to 80	
CC(CC#Cc1ncccc1C(F)(F)F)Nc1ncnc2sccc12 (stereo not drawn) [compound 264]	60 to 80	60 to 80	60 to 80
CC(CC#Cc1ccc(C(F)(F)F)cc1Cl)Nc1ncnc2ccccc12 (stereo not drawn) [compound 282]	> 95	80 to 95	> 95
FC(F)(F)c1ccc(C#CCCNc2ncnc3ccccc23)cc1Cl [compound 177]		60 to 80	
FC(F)(F)c1ccc(C#CCCNc2ncnc3sccc23)cc1 [compound 27]		80 to 95	60 to 80
CC(F)c1ncnc(NCCC#Cc2ccccc2)c1I (stereo not drawn) [compound 374]	> 95	> 95	
Cc1cc(Cl)ccc1C#CCC(C)Nc1ncnc2sccc12 (stereo not drawn) [compound 250]	> 95	> 95	
OCc1ccccc1C#CCCNc1ncnc2ccccc12 [compound 130]	80 to 95	60 to 80	
Clc1ccc(C#CCCNc2ncnc3sccc23)cc1 [compound 16]	60 to 80	60 to 80	

Compound	mortality at 250 ppm (Aphis gossypii) [%]	mortality at 500 ppm (Spodptera litura) [%]	mortality at 250 ppm [1] [%]
COCc1ccc(C)cc1C#CCCNc1ncnc2ccccc12 [compound 144]	> 95	> 95	
Cc1ccc(C#CCC(C)Nc2ncnc3ccccc23)cc1 (stereo not drawn) [compound 279]	> 95	80 to 95	
CN(c1ccc(C#CCCNc2ncnc3ccccc23)cc1)S(C)(=O)=O [compound 124]	60 to 80		> 95
COCc1ccccc1C#CCCNc1ncnc2ccc(F)cc12 [compound 317]	> 95	60 to 80	
C(#Cc1ccc(C2CCCCC2)cc1)CCNc1ncnc2ccccc12 [compound 109]	60 to 80		> 95
COc1nc(C#CCCNc2ncnc3sccc23)cs1 [compound 67]	60 to 80		60 to 80
CCOCc1ccccc1C#CCCNc1ncnc2ccccc12 [compound 153]	> 95		> 95
CC(CC#Cc1c(Cl)cc(C(F)(F)F)cc1Cl)Nc1ncnc2sccc12 (stereo not drawn) [compound 262]	> 95		> 95
COCc1ccccc1C#CCCNc1ncnc2ccc(SC)cc12 [compound 332]		60 to 80	
Cc1cc(C)c(C#CCC(C)Nc2ncnc3sccc23)c(C)c1 (stereo not drawn) [compound 263]	60 to 80		60 to 80
CCCC(CC#Cc1ccccc1)Nc1ncnc2sccc12 (stereo not drawn) [compound 268]	> 95	60 to 80	
C(#Cc1csc(Oc2ccccc2)n1)CCNc1ncnc2sccc12 [compound 83, 4-[4-(2-Phenoxythiazol-4-yl)-3-butynylamino]thieno[2,3-d]pyrimidine]	60 to 80		60 to 80
CC(CC#Cc1ccc(S(F)(F)(F)(F)F)cc1Cl)Nc1ncnc2ccccc12 (stereo not drawn) [compound 283]	80 to 95		> 95
CC(CC#Cc1ccccc1)Nc1ncnc(C(C)F)c1I (stereo not drawn) [compound 381]	60 to 80	60 to 80	
COCOc1ccc(C#CCCNc2ncnc3ccccc23)cc1 [compound 121]		60 to 80	
CC(CC#Cc1ccc(Cl)cc1C(F)(F)F)Nc1ncnc2c(Cl)cccc12 (stereo not drawn) [compound 349]	> 95		80 to 95
CC(C)OCc1ccccc1C#CCCNc1ncnc2ccccc12 [compound 154]	> 95	60 to 80	
Brc1csc(C#CCCNc2ncnc3sccc23)n1 [compound 64]	60 to 80		60 to 80
CCC(CC#Cc1ccccc1)Nc1ncnc2sccc12 (stereo not drawn) [compound 267]	> 95		60 to 80
